Values belong to the molecule of their own block, whether it stands above or below them.
Biological target: MMP-14 (Homo sapiens, UniProt P50281)
Assay: Selection and phage ELISA screening of anti-MMP-14 Fabs
Format: binding
Conditions: Fab from FAB310 phage display library
Experimental: Strategy I: A 100-fold excess of the FAB310 library (e.g., an amount of the library that should contain 100 copies of each library member) was depleted of streptavidin-binding antibodies by incubating the library with 200 μL of streptavidin beads for 1 hour at room temperature (RT) with rotation. 500 nM of biotinylated MMP-14 was coupled to streptavidin beads by incubation with 100 μL of streptavidin beads. The MMP-14 beads were then incubated with the streptavidin-depleted library for 1 hour at RT with rotation. The beads were then rinsed three times with 2% MTRIS/0.1% Tween, transferred to a fresh tube and washed an additional three times with 2% MTRIS/0.1% Tween, and transferred to a fresh tube and washed a final time with Round 1 TRIS buffer (50 mM TRIS; 50 mM CaCl2; 150 mM NaCl, pH 7.5).
MMP-14 binding antibodies were eluted from the beads by re-suspension in 1 mL 2% MTRIS containing 2.5 μM TIMP-2 and incubation for 1 hour at RT with rotation. The beads were then washed three times with 2% MTRIS/0.1% Tween, transferred to a fresh tube and washed three times with TRIS/0.1% Tween, and transferred to a fresh tube and washed a final time with TRIS. 1 mL output was used for infection of 9 mL TG1 bacteria (grown to OD600=0.5). The beads were further eluted by suspension in 1 mL 100 mM TEA for 10 minutes. The supernatant was neutralized with 500 μl TRIS/HCl pH 7.5. 1 mL of the second elution was used for infection of 9 mL TG1 bacteria (grown to OD600=0.5).
Two additional rounds of selection were carried out under the same conditions as the first round, except that the streptavidin beads were loaded with 100 nM biotinylated MMP-14 and the number of washes were doubled (6 times with 2% MTRIS/0.1% Tween, 6 times with TRIS/0.1% Tween and 2 times with TRIS), and Round 2/3 Tris buffer (50 mM TRIS; 5 mM CaCl2; 150 mM NaCl pH=7.5) was used for incubation and wash.
TIMP-2 was coupled to carboxylic beads, then complexed with a combination of biotinylated MMP-14 (500 nM each). The complexed beads were incubated with a 100 fold excess of FAB310 library that had been previously depleted by incubation with streptavidin beads and carboxylic beads. Elution/washing was carried out as for Strategy I.
Two additional rounds of selection were carried out, essentially as described for Strategy I, except that only 100 nM of each of MMP-14 were used in the bead complexes.
384-well plates were coated with biotinylated BSA (2 μg/ml in 50 mM TRIS; 5 mM CaCl2; 150 mM NaCl, pH 7.5), then washed 3 times with 50 mM TRIS; 5 mM CaCl2; 150 mM NaCl, pH 7.5; 0.1% Tween. Streptavidin was captured on the coated plates by incubation with 10 μg/mL streptavidin in 50 mM TRIS; 5 mM CaCl2; 150 mM NaCl pH 7.5; 0.5% Gelatin, followed by a wash with 50 mM TRIS; 5 mM CaCl2; 150 mM NaCl pH=7.5; 0.1% Tween. On the day the assay was to be performed, biotinylated MMP-14 (1 μg/ml) was captured in 50 mM TRIS; 5 mM CaCl2; 150 mM NaCl, pH 7.5.
95 clones were picked from each of Round 2 and Round 3 of each selection strategy, producing 12 masterplates. ELISA was run on the MiniTrak-5 deck according to SOP.

B2: M0040-B08: Fab that binds human MMP-14; DNA LV SEQ ID NO: 90, HV SEQ ID NO: 91 (antibody, V domains shown)
VL: [about 100 residues left out here]
VH: EVQLLESGGGLVQPGGSLRLSCAASGFTFSYYNDMAWVRQAPGKGLEWVSSISPSGGKTEYADSVKGRFTISRDNSKNTLYLQMNSLRAEDTAVYYCARSGSYTQHFDYWGQGTLVTVSS
modifications: Synthetically generated oligonucleotide
- bind to human MMP-14: bind to human MMP-14

B3: M0036-H08: Fab that binds human MMP-14; DNA LV SEQ ID NO: 34, HV SEQ ID NO: 35 (antibody, V domains shown)
VL: [about 100 residues left out here]FGQGSKVEIKRT
VH: EVQLLESGGGLVQPGGSLRLSCAASGFTFSRYWMVWVRQAPGKGLEWVSYIYSSGGMTGYADSVKGRFTISRDNSKNTLYLQMNSLRAEDTAVYYCARGGEYSGFLGVWGQGTLVTVSS
modifications: Synthetically generated oligonucleotide
- bind to human MMP-14: bind to human MMP-14

B5: M0040-A08: Fab that binds human MMP-14; DNA LV SEQ ID NO: 84, HV SEQ ID NO: 85 (antibody, V domains shown)
VL: [about 100 residues left out here]FGGGTKVEIK
VH: EVQLLESGGGLVQPGGSLRLSCAASGFTFSAYMMGWVRQAPGKGLEWVSGISSSGGLTSYADSVKGRFTISRDNSKNTLYLQMNSLRAEDTAVYYCARPALIYYDSSGPSDAFDIWGQGTMVTVSS
modifications: Synthetically generated oligonucleotide
- bind to human MMP-14: bind to human MMP-14

B6: M0031-H10: Fab that binds human MMP-14; DNA LV SEQ ID NO: 18, HV SEQ ID NO: 19 (antibody, V domains shown)
VH: EVQLLESGGGLVQPGGSLRLSCAASGFTFSQYVMWWVRQAPGKGLEWVSSIVPSGGVTKYADSVKGRFTISRDNSKNTLYLQMNSLRAEDTAVYYCAKDVFGSIGYYYVPFFDYWGQGTLVTVSS
VL: [about 100 residues left out here]FTFGPGTKVDIK
modifications: Synthetically generated oligonucleotide
- bind to human MMP-14: bind to human MMP-14

The remaining lines, values ahead:

- bind to human MMP-14: bind to human MMP-14
B1: M0041-D08: Fab that binds human MMP-14; DNA LV SEQ ID NO: 114, HV SEQ ID NO: 115 (antibody, V domains shown)
VL: QDIQMTQSPGTLSLSPGERATLS[about 80 residues left out here]FGQGTKVEIK
VH: EVQLLESGGGLVQPGGSLRLSCAASGFTFSSYRMSWVRQAPGKGLEWVSGISSSGGFTMYADSVKGRFTISRDNSKNTLYLQMNSLRAEDTAVYYCARDILTGYSYGMDVWGQGTTVTVSS
modifications: Synthetically generated oligonucleotide

- bind to human MMP-14: bind to human MMP-14
B4: M0042-G12: Fab that binds human MMP-14; DNA LV SEQ ID NO: 124, HV SEQ ID NO: 125 (antibody, V domains shown)
VL: QDIQMTQSPGTLSLSPGERATLS[about 80 residues left out here]YTFGQGTKLEIK
VH: EVQLLESGGGLVQPGGSLRLSCAASGFTFSHYPMFWVRQAPGKGLEWVSGISSSGGYTIYADSVKGRFTISRDNSKNTLYLQMNSLRAEDTAVYYCARGGRRQTRRTSDYYYGMDVWGQGTTVTVSS
modifications: Synthetically generated oligonucleotide

— patent US8106168B2, “Metalloproteinase binding proteins” (Dyax Corp., priority 2005, dated 2012)
